This note sets out measurements from publication PMC4336329 (PLoS ONE, 2015).

Screen size: about 310,000 compounds; about 14,000 (4.5%) showed an effect of 50% or more. Effects have a minus sign here. This is one part of the list.
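Further: peak tail current of the secondary pulse compared with the same well before compound.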

In the assay the target is human ether-à-go-go-related gene (hERG) potassium channel (human, UniProt Q12809). The experiment in a line: primary screen, population patch clamp on CHO cells stably expressing hERG.
Chain of human ether-à-go-go-related gene (hERG) potassium channel (Q12809 whole entry, looked up): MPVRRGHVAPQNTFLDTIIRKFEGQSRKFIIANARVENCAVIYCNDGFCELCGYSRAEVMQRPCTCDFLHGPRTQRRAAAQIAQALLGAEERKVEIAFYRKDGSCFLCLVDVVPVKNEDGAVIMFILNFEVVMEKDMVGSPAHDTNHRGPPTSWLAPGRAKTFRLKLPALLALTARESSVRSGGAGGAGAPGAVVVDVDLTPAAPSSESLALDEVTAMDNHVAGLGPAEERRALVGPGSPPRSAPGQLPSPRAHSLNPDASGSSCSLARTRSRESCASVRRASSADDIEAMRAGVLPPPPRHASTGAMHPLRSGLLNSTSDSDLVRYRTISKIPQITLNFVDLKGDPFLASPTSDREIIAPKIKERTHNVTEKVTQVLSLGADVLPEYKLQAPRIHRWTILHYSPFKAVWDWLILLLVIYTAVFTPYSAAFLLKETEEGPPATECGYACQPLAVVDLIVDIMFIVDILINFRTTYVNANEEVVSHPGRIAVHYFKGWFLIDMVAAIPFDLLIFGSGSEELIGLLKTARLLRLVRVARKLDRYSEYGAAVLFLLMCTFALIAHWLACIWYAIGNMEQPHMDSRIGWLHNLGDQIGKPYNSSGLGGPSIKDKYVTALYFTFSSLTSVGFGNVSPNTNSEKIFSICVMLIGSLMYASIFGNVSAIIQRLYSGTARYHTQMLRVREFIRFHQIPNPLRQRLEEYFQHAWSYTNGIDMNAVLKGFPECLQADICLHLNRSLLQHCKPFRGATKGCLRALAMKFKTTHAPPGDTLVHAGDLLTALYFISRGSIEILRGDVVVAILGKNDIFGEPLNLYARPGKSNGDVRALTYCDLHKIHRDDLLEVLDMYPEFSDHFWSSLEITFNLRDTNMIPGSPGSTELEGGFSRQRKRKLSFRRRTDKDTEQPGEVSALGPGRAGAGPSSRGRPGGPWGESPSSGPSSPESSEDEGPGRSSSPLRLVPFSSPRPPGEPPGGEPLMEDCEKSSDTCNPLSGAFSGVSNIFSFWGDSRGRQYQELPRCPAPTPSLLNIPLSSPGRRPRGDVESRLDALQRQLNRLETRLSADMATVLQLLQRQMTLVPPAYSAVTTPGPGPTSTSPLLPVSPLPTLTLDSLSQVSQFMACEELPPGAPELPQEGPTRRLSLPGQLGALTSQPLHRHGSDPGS
With `Nc1cc(N)nc(SCCc2ccccc2)n1`, the “hERG current change (%, negative = inhibition) at 10uM” value is given as 1.76%. In the case of `O=c1[nH]c(CN2CCN(c3ccccc3)CC2)nc2scc(-c3ccccc3)c12` it was 5%; in that of `Cn1ncc2cc(NC(N)=S)ccc21`, 9.29%. Take `COC(=O)/C(=C\C(=O)c1ccccc1)Nc1ccc(OC)cc1`: the “hERG current change (%, negative = inhibition) at 10uM” value is listed as -2.25%.

As for `C=CCOc1ccc(/C(O)=C2\C(=O)C(=O)N(CCCOC)C2c2ccncc2)cc1` (stereo not drawn), the “hERG current change (%, negative = inhibition) at 10uM” value is given as 15.8%. In the case of `CCOC(=O)N1CCC(NC(=O)c2ccccc2C(=O)O)CC1` it was -2.62%. In the case of `CC(=O)Nc1nc(C2CC2)cc(-c2ccccc2)c1C#N` it was 7.17%. In the case of `CCN(CC)CCNC(=O)Cn1cnc2sc(C)c(S(=O)(=O)N3CCN(c4ccccc4OC)CC3)c2c1=O` it was 8.64%. Consider `Cc1cc(Br)c(OCc2ccc(C(=O)N/N=C3\CC4CC=CC34)cc2)c(Br)c1` (stereo not drawn), for which the “hERG current change (%, negative = inhibition) at 10uM” value came to 1.57%. In the case of `COC(=O)Cn1nnc(N2CCOCC2)n1` it was 22.2%; in that of `CC(OC(=O)C1CSC2(c3ccc(F)cc3)CCC(=O)N12)C(=O)NC(N)=O` (stereo not drawn), -8%; in that of `CCN1CCN(C(c2ccccc2OC)c2nnnn2C2CCCCC2)CC1.Cl` (stereo not drawn), -0.942%.

As to `CC(C)CN(C(=O)C1COc2ccccc2O1)c1c(N)n(CC(C)C)c(=O)[nH]c1=O` (stereo not drawn), the “hERG current change (%, negative = inhibition) at 10uM” value is -2.18%. In the case of `Fc1ccc(C(c2nnnn2C2CCCC2)N(Cc2ccco2)CC2CCCO2)cc1` (stereo not drawn) it was -28%; in that of `O=S(=O)(c1ccc(NC(=S)N/N=C/c2c3ccccc3cc3ccccc23)cc1)N1CCOCC1`, 8.09%.

For the compound `COc1cc(/C=C/C(=O)OCC(=O)Nc2cc(C)c(C)cc2[N+](=O)[O-])ccc1O`, the “hERG current change (%, negative = inhibition) at 10uM” value is 10.2%. The result for `CC(Oc1ccc2ccccc2c1)C(=O)NNC(=S)NC(=O)c1ccco1` (stereo not drawn) reads 7.62%; that for `CC1=Nc2cc(C(=O)NCCCN3CCOCC3)ccc2Sc2c(C)ccc(C)c21`, 3.13%. In the case of `COc1ccccc1NC(=O)c1csc2c1CCC(C)C2` (stereo not drawn) it was 2.99%. With `CCCCn1c(N)c(N(CCOC)C(=O)c2cccc(S(=O)(=O)N(CC)c3ccccc3)c2)c(=O)[nH]c1=O`, the “hERG current change (%, negative = inhibition) at 10uM” value was -7.55%.

For `CC(/C=N/NC(=O)c1ccco1)=C\c1ccccc1`, the “hERG current change (%, negative = inhibition) at 10uM” value amounted to 6.28%. The result for `COc1ccccc1-c1cc2ccccc2[nH]1` reads 0.615%; that for `COCCN(CCOC)S(=O)(=O)c1ccc(C(=O)Nc2ccc([N+](=O)[O-])cc2OC)cc1`, 2.81%; that for `O=C(NCC1CCCCC1)C1(CC2CC(c3cccc(Br)c3)=NO2)CCNCC1` (stereo not drawn), -24.1%.

On to `COc1ccc(CC(=O)Nc2cccc(-c3nnc(-c4ccco4)o3)c2)cc1`, for which the “hERG current change (%, negative = inhibition) at 10uM” value is given as 3.56%. The result for `CN(C)c1ccc(C(=S)N2CCCCCC2)cc1` reads -5.79%. The result for `Cc1ccc(CN=C2NC(=O)C(CC(=O)NCCc3ccccc3)S2)cc1` (stereo not drawn) reads -10.4%. The result for `N#Cc1c(N)nc(N)nc1Nc1ccc(Br)cc1` reads 4.83%; that for `CCOC(=O)c1ccc(NC(=O)C2=C(C)Nc3nc(CCCO)nn3C2c2cccc(C)c2)cc1` (stereo not drawn), 1.07%. `CCc1nn(C(C)C(=O)NCCN2CCCCCC2)c(=O)c2cc3occc3n12` (stereo not drawn): the “hERG current change (%, negative = inhibition) at 10uM” value came to 6.27%. The result for `COc1ccc(/C=C/C(=O)c2ccccc2)cc1COc1ccccc1F` reads -3.03%.

`Cc1nc(-c2cccs2)ccc1C(=O)O`: the “hERG current change (%, negative = inhibition) at 10uM” value is -2.45%. In the case of `CCOC(=O)c1cc2c(ccn2C)n1Cc1ccccc1Cl` it was 28.8%; in that of `CCc1ccccc1N1CCN(S(=O)(=O)c2ccc(F)c(C)c2)CC1`, 4.43%. The result for `O=C(NCc1ccco1)c1cccc(NC(=O)c2ccccc2)c1` reads -19.5%. The result for `COC(=O)c1nc2n(n1)C(c1ccccc1OC)C1=C(CCCC1=O)N2` (stereo not drawn) reads 4.21%.

`COc1ccc(NS(=O)(=O)c2cccc3ccccc23)cc1`: the “hERG current change (%, negative = inhibition) at 10uM” value is recorded as 8.31%. For the compound `O=C(COC(=O)Cc1ccccc1F)NNC(=O)c1ccc(Cl)cc1`, the “hERG current change (%, negative = inhibition) at 10uM” value was 1.22%. In the case of `O=C1CCCC2=C1C(c1ccc3c(c1)OCO3)c1c([nH]n(-c3ccccc3)c1=O)N2` (stereo not drawn) it was 3.47%; in that of `O=C(NC1CCSC1=O)c1ccc(Oc2cccc(C(F)(F)F)c2)nc1` (stereo not drawn), -29.4%.

`CCOC(=O)C1(CCOC)CCN(Cc2ccccc2-c2ccco2)CC1`: the “hERG current change (%, negative = inhibition) at 10uM” value was -22.4%. Consider `CSCCC1NC(=O)NC1=O` (stereo not drawn), for which the “hERG current change (%, negative = inhibition) at 10uM” value is given as 8.42%. The result for `O=S(=O)(NCCC1=CCCCC1)c1ccc(F)cc1` reads -5.81%. Take `O=C(Nc1ccccc1N1CCOCC1)c1csc2c1CCCC2`: the “hERG current change (%, negative = inhibition) at 10uM” value is -0.704%. In the case of `O=C(COC(=O)c1ccccc1Cl)Nc1ccc2[nH]c(=O)[nH]c2c1` it was -2.94%.
